{
  "source": "ChEMBL document CHEMBL1909046",
  "about": "“DrugMatrix in vitro pharmacology data”; further: in other assays of this panel Not Active means under 50% inhibition at 10 µM",
  "key": {"Cytochrome P450 3A4": {"target": "Cytochrome P450 3A4 (Homo sapiens, UniProt P08684)", "sequence (P08684 whole entry)": "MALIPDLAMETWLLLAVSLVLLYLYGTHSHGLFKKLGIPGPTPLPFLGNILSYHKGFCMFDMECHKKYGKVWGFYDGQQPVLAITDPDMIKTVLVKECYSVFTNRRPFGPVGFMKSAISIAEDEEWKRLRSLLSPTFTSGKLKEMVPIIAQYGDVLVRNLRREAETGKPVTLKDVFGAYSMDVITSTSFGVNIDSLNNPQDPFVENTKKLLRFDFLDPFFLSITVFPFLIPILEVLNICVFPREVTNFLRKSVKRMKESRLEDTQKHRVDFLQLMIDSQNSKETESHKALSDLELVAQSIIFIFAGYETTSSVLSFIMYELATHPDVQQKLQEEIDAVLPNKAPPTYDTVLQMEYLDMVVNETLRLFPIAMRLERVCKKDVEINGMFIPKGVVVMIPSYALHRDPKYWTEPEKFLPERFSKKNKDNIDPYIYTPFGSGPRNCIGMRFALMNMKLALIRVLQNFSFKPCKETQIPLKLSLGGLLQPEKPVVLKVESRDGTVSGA", "conditions": "bti-tn-5b1-4"}, "[1]": {"target": "Voltage-gated inwardly rectifying potassium channel KCNH2 (Homo sapiens, UniProt Q12809)", "sequence (Q12809 whole entry)": "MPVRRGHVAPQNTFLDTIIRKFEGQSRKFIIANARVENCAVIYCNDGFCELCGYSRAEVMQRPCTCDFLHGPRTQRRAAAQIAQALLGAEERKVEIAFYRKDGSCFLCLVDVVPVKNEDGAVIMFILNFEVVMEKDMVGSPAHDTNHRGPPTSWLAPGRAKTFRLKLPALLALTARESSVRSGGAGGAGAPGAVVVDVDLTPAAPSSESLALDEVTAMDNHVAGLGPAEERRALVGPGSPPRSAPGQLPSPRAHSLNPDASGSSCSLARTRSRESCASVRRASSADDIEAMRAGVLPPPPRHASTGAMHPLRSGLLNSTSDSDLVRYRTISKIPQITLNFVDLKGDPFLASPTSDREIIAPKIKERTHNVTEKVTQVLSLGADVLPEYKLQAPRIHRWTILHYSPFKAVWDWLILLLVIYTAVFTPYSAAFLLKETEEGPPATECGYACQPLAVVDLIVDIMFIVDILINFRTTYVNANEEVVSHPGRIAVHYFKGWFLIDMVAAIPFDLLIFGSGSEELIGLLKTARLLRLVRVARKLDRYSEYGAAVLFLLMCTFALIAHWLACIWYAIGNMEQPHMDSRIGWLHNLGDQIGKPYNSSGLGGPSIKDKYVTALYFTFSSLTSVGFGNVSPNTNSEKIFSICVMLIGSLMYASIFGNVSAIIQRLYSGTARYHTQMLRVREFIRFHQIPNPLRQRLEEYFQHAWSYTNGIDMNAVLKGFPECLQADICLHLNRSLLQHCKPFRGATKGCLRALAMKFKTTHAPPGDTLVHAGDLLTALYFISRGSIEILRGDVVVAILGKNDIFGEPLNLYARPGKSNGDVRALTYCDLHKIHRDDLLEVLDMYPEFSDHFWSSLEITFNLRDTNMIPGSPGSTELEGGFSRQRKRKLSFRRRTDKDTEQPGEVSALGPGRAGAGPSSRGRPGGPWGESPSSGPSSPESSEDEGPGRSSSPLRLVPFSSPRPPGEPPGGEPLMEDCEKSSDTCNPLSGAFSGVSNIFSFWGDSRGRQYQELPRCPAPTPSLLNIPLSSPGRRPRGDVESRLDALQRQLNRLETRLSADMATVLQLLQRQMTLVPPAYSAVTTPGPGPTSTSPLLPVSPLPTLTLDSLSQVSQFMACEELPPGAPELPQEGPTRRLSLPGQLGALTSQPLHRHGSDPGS", "conditions": "hek293"}, "Cytochrome P450 2C9": {"target": "Cytochrome P450 2C9 (Homo sapiens, UniProt P11712)", "sequence (P11712 whole entry)": "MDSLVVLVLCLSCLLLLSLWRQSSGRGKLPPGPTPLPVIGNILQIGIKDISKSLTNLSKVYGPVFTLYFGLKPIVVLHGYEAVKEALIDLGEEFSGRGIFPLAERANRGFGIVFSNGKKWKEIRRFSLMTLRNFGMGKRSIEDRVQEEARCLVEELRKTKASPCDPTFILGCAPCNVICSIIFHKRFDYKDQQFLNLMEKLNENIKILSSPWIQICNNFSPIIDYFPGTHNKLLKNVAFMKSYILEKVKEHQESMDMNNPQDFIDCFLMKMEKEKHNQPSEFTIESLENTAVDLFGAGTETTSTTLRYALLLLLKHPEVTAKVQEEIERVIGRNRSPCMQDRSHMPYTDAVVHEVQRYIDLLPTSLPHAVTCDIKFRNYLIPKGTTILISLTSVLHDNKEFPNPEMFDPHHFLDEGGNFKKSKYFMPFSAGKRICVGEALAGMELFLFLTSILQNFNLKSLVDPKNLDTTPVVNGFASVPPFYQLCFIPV", "conditions": "bti-tn-5b1-4"}, "Cytochrome P450 1A2": {"target": "T1, Cytochrome P450 1A2 (Homo sapiens, UniProt P05177)", "T1 sequence (P05177 whole entry)": "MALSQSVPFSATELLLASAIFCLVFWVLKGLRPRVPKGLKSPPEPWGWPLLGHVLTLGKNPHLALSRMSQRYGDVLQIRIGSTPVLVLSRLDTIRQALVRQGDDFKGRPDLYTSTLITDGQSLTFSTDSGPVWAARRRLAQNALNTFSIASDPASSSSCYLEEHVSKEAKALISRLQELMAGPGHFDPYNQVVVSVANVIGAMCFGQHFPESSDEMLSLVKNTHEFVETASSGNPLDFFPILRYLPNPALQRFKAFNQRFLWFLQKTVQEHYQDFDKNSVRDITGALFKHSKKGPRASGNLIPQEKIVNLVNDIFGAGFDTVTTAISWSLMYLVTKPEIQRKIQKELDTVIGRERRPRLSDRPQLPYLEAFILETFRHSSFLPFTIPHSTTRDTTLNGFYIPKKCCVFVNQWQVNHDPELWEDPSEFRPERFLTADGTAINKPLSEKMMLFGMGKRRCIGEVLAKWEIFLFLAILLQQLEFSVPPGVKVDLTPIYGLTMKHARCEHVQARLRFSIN", "conditions": "bti-tn-5b1-4"}, "Cytochrome P450 2A6": {"target": "T2, Cytochrome P450 2A6 (Homo sapiens, UniProt P11509)", "T2 sequence (P11509 whole entry)": "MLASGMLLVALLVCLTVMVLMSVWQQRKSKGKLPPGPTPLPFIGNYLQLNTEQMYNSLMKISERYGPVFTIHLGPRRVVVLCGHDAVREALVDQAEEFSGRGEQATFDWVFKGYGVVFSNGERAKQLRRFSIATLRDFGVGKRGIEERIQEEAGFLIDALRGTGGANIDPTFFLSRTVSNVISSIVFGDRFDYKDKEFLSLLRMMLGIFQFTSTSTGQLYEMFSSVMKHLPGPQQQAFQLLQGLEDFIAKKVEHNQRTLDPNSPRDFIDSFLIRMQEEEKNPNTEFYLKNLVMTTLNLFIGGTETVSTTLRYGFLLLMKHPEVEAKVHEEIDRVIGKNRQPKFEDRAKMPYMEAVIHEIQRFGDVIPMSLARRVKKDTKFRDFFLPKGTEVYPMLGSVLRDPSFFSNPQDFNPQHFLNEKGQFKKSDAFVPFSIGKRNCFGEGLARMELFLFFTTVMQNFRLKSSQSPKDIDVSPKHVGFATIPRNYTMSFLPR", "conditions": "bti-tn-5b1-4"}, "Cytochrome P450 2E1": {"target": "Cytochrome P450 2E1 (Homo sapiens, UniProt P05181)", "sequence (P05181 whole entry)": "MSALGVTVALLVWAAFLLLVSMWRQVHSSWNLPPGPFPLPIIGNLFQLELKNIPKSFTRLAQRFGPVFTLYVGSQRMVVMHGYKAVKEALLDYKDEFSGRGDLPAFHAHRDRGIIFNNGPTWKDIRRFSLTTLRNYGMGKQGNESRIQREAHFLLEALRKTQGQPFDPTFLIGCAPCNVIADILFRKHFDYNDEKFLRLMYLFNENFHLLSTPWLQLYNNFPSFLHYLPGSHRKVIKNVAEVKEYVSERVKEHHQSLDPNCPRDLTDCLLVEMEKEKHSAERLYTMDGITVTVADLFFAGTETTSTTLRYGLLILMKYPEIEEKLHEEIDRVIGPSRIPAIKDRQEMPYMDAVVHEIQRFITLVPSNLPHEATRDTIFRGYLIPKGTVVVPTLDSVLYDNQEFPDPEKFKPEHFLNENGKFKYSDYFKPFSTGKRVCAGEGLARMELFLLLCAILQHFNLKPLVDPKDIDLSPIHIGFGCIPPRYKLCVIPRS", "conditions": "bti-tn-5b1-4"}, "Cytochrome P450 2D6": {"target": "Cytochrome P450 2D6 (Homo sapiens, UniProt P10635)", "sequence (P10635 whole entry)": "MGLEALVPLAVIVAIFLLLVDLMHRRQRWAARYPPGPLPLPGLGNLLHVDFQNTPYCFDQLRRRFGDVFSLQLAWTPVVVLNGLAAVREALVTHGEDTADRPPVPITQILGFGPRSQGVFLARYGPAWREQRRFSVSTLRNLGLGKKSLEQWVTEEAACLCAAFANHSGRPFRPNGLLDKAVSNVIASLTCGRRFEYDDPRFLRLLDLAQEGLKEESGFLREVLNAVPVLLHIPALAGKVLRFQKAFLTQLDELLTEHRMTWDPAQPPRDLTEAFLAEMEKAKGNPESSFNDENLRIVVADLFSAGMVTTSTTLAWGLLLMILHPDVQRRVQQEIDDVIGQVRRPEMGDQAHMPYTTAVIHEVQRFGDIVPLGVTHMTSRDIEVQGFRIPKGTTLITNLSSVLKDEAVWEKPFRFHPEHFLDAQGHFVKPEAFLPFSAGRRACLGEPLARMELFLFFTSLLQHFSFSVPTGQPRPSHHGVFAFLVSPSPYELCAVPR", "conditions": "bti-tn-5b1-4"}, "Cytochrome P450 2C19": {"target": "Cytochrome P450 2C19 (Homo sapiens, UniProt P33261)", "sequence (P33261 whole entry)": "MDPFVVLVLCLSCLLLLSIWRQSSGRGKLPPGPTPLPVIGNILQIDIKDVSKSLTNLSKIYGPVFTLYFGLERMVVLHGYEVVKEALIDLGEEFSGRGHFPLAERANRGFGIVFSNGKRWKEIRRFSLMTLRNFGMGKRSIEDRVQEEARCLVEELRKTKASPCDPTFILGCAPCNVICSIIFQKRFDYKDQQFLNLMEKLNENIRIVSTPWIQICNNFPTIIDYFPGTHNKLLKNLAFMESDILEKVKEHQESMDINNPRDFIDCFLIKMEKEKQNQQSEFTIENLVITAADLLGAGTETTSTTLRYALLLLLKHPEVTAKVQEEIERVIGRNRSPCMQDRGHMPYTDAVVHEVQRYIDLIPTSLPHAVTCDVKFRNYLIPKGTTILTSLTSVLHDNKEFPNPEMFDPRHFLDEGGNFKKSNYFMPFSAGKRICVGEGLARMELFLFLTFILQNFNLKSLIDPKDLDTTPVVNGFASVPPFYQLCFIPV", "conditions": "bti-tn-5b1-4"}},
  "data": [
    {"smiles": "O=C1OCCN1/N=C/c1ccc([N+](=O)[O-])o1", "note": "[FURAZOLIDONE]", "values": [
      {"measurement": "IC50", "setting": "Cytochrome P450 3A4", "result": "Not Active"},
      {"measurement": "Ki", "setting": "Cytochrome P450 3A4", "result": "Not Active"},
      {"measurement": "IC50", "setting": "[1]", "result": "Not Active"},
      {"measurement": "Ki", "setting": "[1]", "result": "Not Active"},
      {"measurement": "IC50", "setting": "Cytochrome P450 2C9", "result": "Not Active"},
      {"measurement": "Ki", "setting": "Cytochrome P450 2C9", "result": "Not Active"},
      {"measurement": "IC50", "setting": "Cytochrome P450 1A2", "result": "Not Active"},
      {"measurement": "Ki", "setting": "Cytochrome P450 1A2", "result": "Not Active"},
      {"measurement": "IC50", "setting": "Cytochrome P450 2A6", "result": "Not Active"},
      {"measurement": "Ki", "setting": "Cytochrome P450 2A6", "result": "Not Active"},
      {"measurement": "IC50", "setting": "Cytochrome P450 2E1", "result": "Not Active"},
      {"measurement": "Ki", "setting": "Cytochrome P450 2E1", "result": "Not Active"},
      {"measurement": "IC50", "setting": "Cytochrome P450 2D6", "result": "Not Active"},
      {"measurement": "Ki", "setting": "Cytochrome P450 2D6", "result": "Not Active"}
    ]},
    {"smiles": "COC(=O)C1=C(C)NC(C)=C(C(=O)OC)C1c1ccccc1[N+](=O)[O-]", "note": "[NIFEDIPINE]", "values": [
      {"measurement": "IC50", "setting": "Cytochrome P450 3A4", "result": "Not Active"},
      {"measurement": "Ki", "setting": "Cytochrome P450 3A4", "result": "Not Active"},
      {"measurement": "IC50", "setting": "[1]", "result": "Not Active"},
      {"measurement": "Ki", "setting": "[1]", "result": "Not Active"},
      {"measurement": "IC50", "setting": "Cytochrome P450 2C19", "result": "Not Active"},
      {"measurement": "Ki", "setting": "Cytochrome P450 2C19", "result": "Not Active"},
      {"measurement": "IC50", "setting": "Cytochrome P450 2C9", "result": "Not Active"},
      {"measurement": "Ki", "setting": "Cytochrome P450 2C9", "result": "Not Active"},
      {"measurement": "Ki", "setting": "Cytochrome P450 1A2", "result": "Note: corresponding IC50 reported as Active"},
      {"measurement": "IC50", "setting": "Cytochrome P450 2A6", "result": "Not Active"},
      {"measurement": "Ki", "setting": "Cytochrome P450 2A6", "result": "Not Active"},
      {"measurement": "IC50", "setting": "Cytochrome P450 2E1", "result": "Not Active"},
      {"measurement": "Ki", "setting": "Cytochrome P450 2E1", "result": "Not Active"},
      {"measurement": "IC50", "setting": "Cytochrome P450 2D6", "result": "Not Active"},
      {"measurement": "Ki", "setting": "Cytochrome P450 2D6", "result": "Not Active"}
    ]}
  ]
}
